Data: the supplement of paper PMC8728848
The other results are listed elsewhere or left out.

Columns and labels:
Assay in all cases: glycan array binding signal (z-score within array); higher = stronger binding
Conditions in all cases: glycan notation: IUPAC condensed, linker removed
Glc(b1-4)Glc = target: Glc(b1-4)Glc
Outline: (§1)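 The binding signal is a Z-score computed within each array. Data were drawn from 3228 arrays in the Consortium for Functional Glycomics database, restricted to those with a known protein sequence. Scores were averaged over arrays of the same protein sequence at different concentrations or buffers, and over linkers, and negative values can be taken as non-binding.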

Glc(b1-6)Glc = target: Glc(b1-6)Glc
Outline: as §1

GlcA(b1-3)Gal = target: GlcA(b1-3)Gal
Outline: as §1

GlcA(b1-3)GlcNAc = target: GlcA(b1-3)GlcNAc
Outline: as §1

GlcA(b1-6)Gal = target: GlcA(b1-6)Gal
Outline: as §1

[1] = target: GlcA3S(b1-3)Gal(b1-4)GlcNAc(b1-2)Man
Outline: as §1

[2] = target: GlcA3S(b1-3)Gal(b1-4)GlcNAc(b1-3)Gal(b1-4)Glc
Outline: as §1

[3] = target: GlcNAc(a1-3)Gal(b1-4)GlcNAc
Outline: as §1

[4] = target: GlcNAc(a1-4)Gal(b1-3)GlcNAc
Outline: as §1

[5] = target: GlcNAc(a1-4)Gal(b1-4)GalNAc
Outline: as §1

[6] = target: GlcNAc(a1-4)Gal(b1-4)GlcNAc
Outline: as §1

[7] = target: GlcNAc(a1-4)Gal(b1-4)GlcNAc(b1-3)Gal(b1-4)Glc
Outline: as §1

[8] = target: GlcNAc(a1-4)Gal(b1-4)GlcNAc(b1-3)Gal(b1-4)GlcNAc
Outline: as §1

[9] = target: GlcNAc(a1-4)Gal(b1-4)GlcNAc(b1-3)Gal(b1-4)GlcNAc(b1-3)Gal(b1-4)GlcNAc
Outline: as §1

[10] = target: GlcNAc(a1-4)Gal(b1-4)GlcNAc(b1-3)Gal(b1-4)[Fuc(a1-3)]GlcNAc(b1-3)Gal(b1-4)[Fuc(a1-3)]GlcNAc
Outline: as §1

[11] = target: GlcNAc(a1-6)Gal(b1-4)GlcNAc
Outline: as §1

[12] = target: GlcNAc(b1-2)Gal(b1-3)GalNAc
Outline: as §1

[13] = target: GlcNAc(b1-2)Man(a1-3)[GlcNAc(b1-2)Man(a1-6)]Man(b1-4)GlcNAc(b1-4)GlcNAc
Outline: as §1

[14] = target: GlcNAc(b1-2)Man(a1-3)[GlcNAc(b1-2)Man(a1-6)]Man(b1-4)GlcNAc(b1-4)[Fuc(a1-6)]GlcNAc
Outline: as §1

[15] = target: GlcNAc(b1-2)Man(a1-3)[GlcNAc(b1-4)][GlcNAc(b1-2)Man(a1-6)]Man(b1-4)GlcNAc(b1-4)GlcNAc
Outline: as §1

[16] = target: GlcNAc(b1-2)Man(a1-3)[GlcNAc(b1-4)][GlcNAc(b1-2)Man(a1-6)]Man(b1-4)GlcNAc(b1-4)[Fuc(a1-6)]GlcNAc
Outline: as §1

[17] = target: GlcNAc(b1-2)[GlcNAc(b1-4)]Man(a1-3)[GlcNAc(b1-2)Man(a1-6)]Man(b1-4)GlcNAc(b1-4)GlcNAc
Outline: as §1

[18] = target: GlcNAc(b1-2)[GlcNAc(b1-4)]Man(a1-3)[GlcNAc(b1-4)][GlcNAc(b1-2)Man(a1-6)]Man(b1-4)GlcNAc(b1-4)GlcNAc
Outline: as §1

[19] = target: GlcNAc(b1-2)[GlcNAc(b1-4)]Man(a1-3)[GlcNAc(b1-4)][GlcNAc(b1-2)[GlcNAc(b1-6)]Man(a1-6)]Man(b1-4)GlcNAc(b1-4)GlcNAc
Outline: as §1

[20] = target: GlcNAc(b1-2)[GlcNAc(b1-4)]Man(a1-3)[GlcNAc(b1-4)][GlcNAc(b1-2)[GlcNAc(b1-6)]Man(a1-6)]Man(b1-4)GlcNAc(b1-4)[Fuc(a1-6)]GlcNAc
Outline: as §1

[21] = target: GlcNAc(b1-2)[GlcNAc(b1-6)]Man(a1-6)[GlcNAc(b1-2)Man(a1-3)]Man(b1-4)GlcNAc(b1-4)GlcNAc
Outline: as §1

[22] = target: GlcNAc(b1-2)[GlcNAc(b1-6)]Man(a1-6)[GlcNAc(b1-2)Man(a1-3)]Man(b1-4)GlcNAc(b1-4)[Fuc(a1-6)]GlcNAc
Outline: as §1

[23] = target: GlcNAc(b1-2)[GlcNAc(b1-6)]Man(a1-6)[GlcNAc(b1-4)][GlcNAc(b1-2)Man(a1-3)]Man(b1-4)GlcNAc(b1-4)GlcNAc
Outline: as §1

GlcNAc(b1-3)Fuc = target: GlcNAc(b1-3)Fuc
Outline: as §1

GlcNAc(b1-3)Gal = target: GlcNAc(b1-3)Gal
Outline: as §1

[24] = target: GlcNAc(b1-3)Gal(b1-3)GalNAc
Outline: as §1

GlcNAc(b1-3)Gal(b1-4)Glc = target: GlcNAc(b1-3)Gal(b1-4)Glc
Outline: as §1

[25] = target: GlcNAc(b1-3)Gal(b1-4)GlcNAc
Outline: as §1

[26] = target: GlcNAc(b1-3)Gal(b1-4)GlcNAc(b1-2)Man(a1-3)[GlcNAc(b1-3)Gal(b1-4)GlcNAc(b1-2)Man(a1-6)]Man(b1-4)GlcNAc(b1-4)GlcNAc
Outline: as §1

[27] = target: GlcNAc(b1-3)Gal(b1-4)GlcNAc(b1-2)Man(a1-3)[GlcNAc(b1-3)Gal(b1-4)GlcNAc(b1-2)Man(a1-6)]Man(b1-4)GlcNAc(b1-4)[Fuc(a1-6)]GlcNAc
Outline: as §1

[28] = target: GlcNAc(b1-3)Gal(b1-4)GlcNAc(b1-2)[GlcNAc(b1-3)Gal(b1-4)GlcNAc(b1-6)]Man(a1-6)[GlcNAc(b1-3)Gal(b1-4)GlcNAc(b1-2)Man(a1-3)]Man(b1-4)GlcNAc(b1-4)GlcNAc
Outline: as §1

[29] = target: GlcNAc(b1-3)Gal(b1-4)GlcNAc(b1-3)Gal(b1-4)GlcNAc
Outline: as §1

[30] = target: GlcNAc(b1-3)Gal(b1-4)GlcNAc(b1-3)Gal(b1-4)GlcNAc(b1-2)Man(a1-3)[GlcNAc(b1-3)Gal(b1-4)GlcNAc(b1-3)Gal(b1-4)GlcNAc(b1-2)Man(a1-6)]Man(b1-4)GlcNAc(b1-4)GlcNAc
Outline: as §1

[31] = target: GlcNAc(b1-3)Gal(b1-4)GlcNAc(b1-3)Gal(b1-4)GlcNAc(b1-2)Man(a1-3)[GlcNAc(b1-3)Gal(b1-4)GlcNAc(b1-3)Gal(b1-4)GlcNAc(b1-2)Man(a1-6)]Man(b1-4)GlcNAc(b1-4)[Fuc(a1-6)]GlcNAc
Outline: as §1

[32] = target: GlcNAc(b1-3)Gal(b1-4)GlcNAc(b1-3)Gal(b1-4)GlcNAc(b1-2)[GlcNAc(b1-3)Gal(b1-4)GlcNAc(b1-3)Gal(b1-4)GlcNAc(b1-6)]Man(a1-6)[GlcNAc(b1-3)Gal(b1-4)GlcNAc(b1-3)Gal(b1-4)GlcNAc(b1-2)Man(a1-3)]Man(b1-4)GlcNAc(b1-4)[Fuc(a1-6)]GlcNAc
Outline: as §1

[33] = target: GlcNAc(b1-3)Gal(b1-4)GlcNAc(b1-3)Gal(b1-4)GlcNAc(b1-3)Gal(b1-4)GlcNAc(b1-2)Man(a1-3)[GlcNAc(b1-3)Gal(b1-4)GlcNAc(b1-3)Gal(b1-4)GlcNAc(b1-3)Gal(b1-4)GlcNAc(b1-2)Man(a1-6)]Man(b1-4)GlcNAc(b1-4)GlcNAc
Outline: as §1

[34] = target: GlcNAc(b1-3)Gal(b1-4)GlcNAc(b1-3)Gal(b1-4)GlcNAc(b1-3)Gal(b1-4)GlcNAc(b1-2)Man(a1-3)[GlcNAc(b1-3)Gal(b1-4)GlcNAc(b1-3)Gal(b1-4)GlcNAc(b1-3)Gal(b1-4)GlcNAc(b1-2)Man(a1-6)]Man(b1-4)GlcNAc(b1-4)[Fuc(a1-6)]GlcNAc
Outline: as §1

[35] = target: GlcNAc(b1-3)Gal(b1-4)GlcNAc(b1-3)Gal(b1-4)GlcNAc(b1-3)Gal(b1-4)GlcNAc(b1-2)[GlcNAc(b1-3)Gal(b1-4)GlcNAc(b1-3)Gal(b1-4)GlcNAc(b1-3)Gal(b1-4)GlcNAc(b1-6)]Man(a1-6)[GlcNAc(b1-3)Gal(b1-4)GlcNAc(b1-3)Gal(b1-4)GlcNAc(b1-3)Gal(b1-4)GlcNAc(b1-2)Man(a1-3)]Man(b1-4)GlcNAc(b1-4)[Fuc(a1-6)]GlcNAc
Outline: as §1

[36] = target: GlcNAc(b1-3)Gal(b1-4)GlcNAc(b1-3)Gal(b1-4)GlcNAc(b1-3)Gal(b1-4)GlcNAc(b1-3)Gal(b1-4)GlcNAc(b1-2)Man(a1-3)[GlcNAc(b1-3)Gal(b1-4)GlcNAc(b1-3)Gal(b1-4)GlcNAc(b1-3)Gal(b1-4)GlcNAc(b1-3)Gal(b1-4)GlcNAc(b1-2)Man(a1-6)]Man(b1-4)GlcNAc(b1-4)GlcNAc
Outline: as §1

[37] = target: GlcNAc(b1-3)Gal(b1-4)GlcNAc(b1-3)Gal(b1-4)GlcNAc(b1-3)Gal(b1-4)GlcNAc(b1-3)Gal(b1-4)GlcNAc(b1-2)Man(a1-3)[GlcNAc(b1-3)Gal(b1-4)GlcNAc(b1-3)Gal(b1-4)GlcNAc(b1-3)Gal(b1-4)GlcNAc(b1-3)Gal(b1-4)GlcNAc(b1-2)Man(a1-6)]Man(b1-4)GlcNAc(b1-4)[Fuc(a1-6)]GlcNAc
Outline: as §1

B1: SSR2 (Sclerotium rolfsii) (protein)
chain: MVYKITVRVYQTNPDAFFHPVEKTVWKYANGGTWSITDDQHVLTMGGSGTSGTLRFHADNGESFTATFGVHNYKRWCDIVTNLAADETGMVINQQYYSQKNREEARERQLSNYQVKNAKGRNFQIVYTEAEGNDLHANLIIG
glycan array binding signal (z-score) (Glc(b1-4)Glc): -0.279 | glycan array binding signal (z-score) (Glc(b1-6)Glc): -0.269 | glycan array binding signal (z-score) (GlcA(b1-3)Gal): -0.282 | glycan array binding signal (z-score) (GlcA(b1-3)GlcNAc): -0.282 | glycan array binding signal (z-score) (GlcA(b1-6)Gal): -0.267 | glycan array binding signal (z-score) [1]: -0.288 | glycan array binding signal (z-score) [2]: -0.292 | glycan array binding signal (z-score) [3]: 3.71 | glycan array binding signal (z-score) [4]: 1.74 | glycan array binding signal (z-score) [5]: 0.967 | glycan array binding signal (z-score) [6]: 2.16 | glycan array binding signal (z-score) [7]: 2.56 | glycan array binding signal (z-score) [8]: 2.84 | glycan array binding signal (z-score) [9]: 6.99 | glycan array binding signal (z-score) [10]: 2.78 | glycan array binding signal (z-score) [11]: 0.528 | glycan array binding signal (z-score) [12]: -0.29 | glycan array binding signal (z-score) [13]: 6.77 | glycan array binding signal (z-score) [14]: 2.06 | glycan array binding signal (z-score) [15]: 2.45 | glycan array binding signal (z-score) [16]: 2.85 | glycan array binding signal (z-score) [17]: 2.71 | glycan array binding signal (z-score) [18]: 1.68 | glycan array binding signal (z-score) [19]: 1.08 | glycan array binding signal (z-score) [20]: -0.095 | glycan array binding signal (z-score) [21]: 4.32 | glycan array binding signal (z-score) [22]: 4.49 | glycan array binding signal (z-score) [23]: 1.23 | glycan array binding signal (z-score) (GlcNAc(b1-3)Fuc): -0.269 | glycan array binding signal (z-score) (GlcNAc(b1-3)Gal): -0.284 | glycan array binding signal (z-score) [24]: 3.63 | glycan array binding signal (z-score) (GlcNAc(b1-3)Gal(b1-4)Glc): -0.198 | glycan array binding signal (z-score) [25]: 0.368 | glycan array binding signal (z-score) [26]: 0.29 | glycan array binding signal (z-score) [27]: 0.434 | glycan array binding signal (z-score) [28]: 0.408 | glycan array binding signal (z-score) [29]: 0.873 | glycan array binding signal (z-score) [30]: 0.693 | glycan array binding signal (z-score) [31]: 1.44 | glycan array binding signal (z-score) [32]: 0.624 | glycan array binding signal (z-score) [33]: 0.861 | glycan array binding signal (z-score) [34]: 2.18 | glycan array binding signal (z-score) [35]: 1.02 | glycan array binding signal (z-score) [36]: 2.3 | glycan array binding signal (z-score) [37]: 2.55
